In all, about 110,000 compounds were measured (“z-score”: median about -0.1, highest 2% from about 2 on). The list shows a part of the results.

The experiment has as its target Metabotropic glutamate receptor 8 (Rattus norvegicus) (UniProt P70579). Put plainly: mGluR8 Gi/Go-coupled signaling modulation – cell-based, rat, thallium flux, HTS, primary screen (AID 488969). Conditions: HEK293 rat mGluR8, GIRK (G protein-gated inwardly rectifying potassium channel) thallium flux, FluoZin2; at 10 µM; stronger effect = higher value; submaximal glutamate (EC20) added with thallium.
Sequence of UniProt P70579 (P70579 whole entry, looked up): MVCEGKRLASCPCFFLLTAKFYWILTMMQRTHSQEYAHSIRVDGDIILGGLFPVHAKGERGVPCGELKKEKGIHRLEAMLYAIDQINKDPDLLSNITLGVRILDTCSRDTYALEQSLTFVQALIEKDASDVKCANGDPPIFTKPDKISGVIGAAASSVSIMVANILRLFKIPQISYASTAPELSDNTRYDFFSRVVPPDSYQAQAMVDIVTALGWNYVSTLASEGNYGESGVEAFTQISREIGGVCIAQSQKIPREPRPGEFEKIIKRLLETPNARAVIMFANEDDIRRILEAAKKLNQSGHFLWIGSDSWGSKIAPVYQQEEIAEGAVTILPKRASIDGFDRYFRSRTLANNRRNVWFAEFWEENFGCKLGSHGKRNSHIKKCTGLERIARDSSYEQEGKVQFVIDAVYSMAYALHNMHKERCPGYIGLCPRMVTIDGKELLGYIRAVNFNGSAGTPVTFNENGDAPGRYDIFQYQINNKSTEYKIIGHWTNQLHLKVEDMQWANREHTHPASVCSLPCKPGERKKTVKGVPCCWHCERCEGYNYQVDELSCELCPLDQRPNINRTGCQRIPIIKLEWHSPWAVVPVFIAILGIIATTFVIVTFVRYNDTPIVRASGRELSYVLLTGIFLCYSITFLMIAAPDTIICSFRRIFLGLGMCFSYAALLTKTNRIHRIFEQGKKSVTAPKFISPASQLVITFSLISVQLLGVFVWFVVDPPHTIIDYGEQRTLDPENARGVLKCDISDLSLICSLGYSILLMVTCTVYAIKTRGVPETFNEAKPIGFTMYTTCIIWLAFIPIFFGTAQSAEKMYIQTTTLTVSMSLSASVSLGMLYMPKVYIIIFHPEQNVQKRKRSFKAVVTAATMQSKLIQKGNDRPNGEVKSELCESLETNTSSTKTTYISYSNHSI
As to `CC(C)c1ccc(NC(=O)COC(=O)CSc2nnc(N)s2)cc1`, the z-score was found to be 0.122. On to `COCCCn1cnnc1SCC(=O)Nc1ccc(S(=O)(=O)N2CCCC2)cc1`, for which the z-score is -0.164. `COC(=O)C1C2C=CC3(CN(CCc4ccccc4)C(=O)C13)O2` (configuration not stated) showed a z-score of 0.336. `CCn1cc(S(=O)(=O)CC(=O)NC2CCCCC2)c2ccccc21`: the z-score stood at 1.08.

As to `CCn1c(=O)n(CCc2ccccc2)c(=O)c2c3c(sc21)CCCC3`, the z-score is -0.00374. The same measure for `C=CCn1c(C)cc(C(=O)CSc2ccc(NC(C)=O)cc2)c1C`: 0.19; for `CN(CCOC(=O)c1cccc(Br)c1)C(C)(C)C`: 0.0485. In the case of `N#Cc1nc(-c2cccs2)oc1NCC1CCCO1` (configuration not stated) it was -0.0797; in that of `Cc1ccc(Nc2nc3c(c(=O)[nH]c(=O)n3C)n2Cc2ccc(F)cc2)cc1`, -0.354; in that of `Fc1cccc2sc(N3CCCCC3)nc12`, -0.322. The same measure for `CCc1ccc(C2C(C#N)=C(N)C(C#N)(C#N)C3=CCC(C(C)(C)C)CC32)cc1` (configuration not stated): -0.0406; for `CC(=O)c1ccc(Nc2nc(=O)c3cccnc3s2)cc1`: 0.37. In the case of `CC(/C=N/NC(=O)c1ccc(Br)cc1)=C\c1ccccc1`, the z-score is -1.26. In the case of `O=C(COC(=O)c1ccc(NS(=O)(=O)c2ccc3c(c2)OCCO3)cc1)NC1CC1` it was 0.00704. With `O=C(CCN1C(=O)c2ccccc2C1=O)Oc1ccc2ccccc2c1`, the z-score is 0.0257. The same measure for `CC(C)(C)NC(=O)CN(C(=O)CCN1CCCc2ccccc21)C(C)(C)C`: -0.0231; for `Cc1cc(SCC(=O)N2CCC(c3noc4ccc(F)cc34)CC2)nc2ccccc12`: 0.605. In the case of `Clc1cccc(Cl)c1CSc1nnc(/C=C/c2ccccc2)o1` it was -0.128; in that of `CCCCCNS(=O)(=O)c1cc(C)ccc1OC`, -0.0789. In the case of `O=C(CN(C(=O)CSc1nnc(COc2ccccc2)o1)c1ccc(F)cc1)NC1CCCCC1` it was 0.212; in that of `COc1ccc(NC(=S)N2CCN(C(=O)c3ccco3)CC2)c(OC)c1`, -0.197; in that of `Cc1nn(Cc2ccc(Cl)cc2)c(=O)n1N(C)c1ncc(C(F)(F)F)cc1Cl`, -0.07. On to `COc1ccc2c(c1)nc(SCC(=O)c1ccc(Br)s1)n2C`, for which the z-score is -0.112. The same measure for `C=CCSc1nc2c(c(=O)[nH]1)C(C(C)C)C(C#N)=C(N)O2` (configuration not stated): -2.35; for `O=C(NC1(C(F)(F)F)NC(=O)N(Cc2cccnc2)C1=O)c1ccccc1` (configuration not stated): 1.13; for `C=Cn1ccnc1P(=S)(c1ccc2c(c1)c1ccccc1n2CC)c1nccn1C=C`: 0.0668.

Consider `O=S(=O)(NC1CC1)c1ccc(S(=O)(=O)N2CCCc3ccccc32)cc1`, for which the z-score was determined as 0.155.

`Cc1cc(C)cc(NC(=S)NCc2cccs2)c1`: the z-score was -0.000167. Take `CCOC(=O)c1sc(/N=C/c2c(O)ccc3ccccc23)cc1C`: the z-score was -0.695.

Turning to `Cc1nc(SCC(=O)CC(=O)OC(C)C)c(C#N)c(C)c1C`, the z-score is -1.82. The same measure for `CN(C)S(=O)(=O)c1ccc(N2CCCC2)c(C(=O)NCc2ccccc2)c1`: -0.0623; for `Cc1nn(-c2ccccc2)c(NC(=O)c2cccs2)c(-c2ccccc2)c1=O`: 0.0624; for `Cc1cc(C(F)F)n2nc(C(=O)Nc3c(F)cc(F)cc3Br)nc2n1`: 0.439. With `CNC(=O)CSCc1c(F)cccc1Cl`, the z-score amounted to 0.811. `CCN(CC)c1ccc2cc(-c3nc(-c4ccc(OC)cc4)cs3)c(=O)oc2c1`: the z-score is -1.4.

As for `CCCCC(=O)Nc1ccc(C(=O)NCc2ccncc2)cc1`, the z-score is -0.508.

With `CC(=O)Nc1ccc(NC(=O)C(C)OC(=O)CNC(=O)c2sc3ccccc3c2Cl)cc1` (configuration not stated), the z-score was -0.64.

Regarding `CCCC(=O)NC(=S)Nc1c(C)cc(Br)cc1C`, the z-score was 0.747. Turning to `COc1ccc(N/N=C(\C=N\O)C(=O)c2ccc(OC)cc2)cc1`, the z-score was -0.414. The same measure for `Cc1ccc(N(C)C(=O)C2CCN(S(=O)(=O)c3ccc4c(c3)oc(=O)n4C)CC2)cc1`: -0.436; for `CN(C)/C(CN1CCOCC1)=C1\N=C(c2ccccc2)OC1=O`: 0.0647. For `CCN(CC)c1ccc(CN2CCCCCC2)cc1`, the z-score stood at 0.0952. Consider `CS(=O)(=O)N(CC(=O)O)c1ccc(Oc2ccccc2)cc1`, for which the z-score was 0.56.

On to `CCOc1ncccc1C(=O)NCc1ccc(C)cc1`, for which the z-score amounted to 0.231.

On to `CCOC(=O)c1c(NC(=O)CSc2ncccn2)sc2c1CCN(Cc1ccccc1)C2`, for which the z-score was -0.724.

Consider `COc1cc(-c2cccs2)cc(=O)c2c(C)oc(C)c12`, for which the z-score was -0.108. The same measure for `O=C(N/N=C/c1cccs1)c1cnccn1`: 0.36; for `CCNC(=O)CSc1nc2ccccc2c(=O)n1-c1cc(OC)ccc1OC`: -0.131; for `Cc1ccc(C(=O)COC(=O)c2cc(Cl)nc3ccccc23)cc1`: -0.0527.

For `Cc1ccc2[nH]c(CCN(C)C)c(CC#N)c2c1`, the z-score turned out to be 0.158. The same measure for `CCOC(=O)c1c(C)[nH]c(C)c1C(=O)CSc1nnc(-c2ccc(OC(F)F)cc2)o1`: 0.176. In the case of `CSc1ccc(/C=N/NC(=O)CN2CCN(Cc3ccc(C)cc3)CC2)cc1` it was 0.23. In the case of `CC(C)Sc1cc(N2CCOCC2)nc(-c2ccc(Cl)cc2)n1` it was -0.00584; in that of `Cc1ccccc1NC(=O)OCc1cn(-c2ccc(Cl)cc2)nn1`, -0.0933; in that of `COc1nc(-c2ccccc2)ccc1-c1noc(-c2cccnc2)n1`, 0.132. On to `O=C(c1cccc(Cl)c1)N1CCN(Cc2ccccc2F)CC1`, for which the z-score was -0.0221. In the case of `O=C1c2cccnc2C(=O)N1c1ccccc1-c1ccccc1` it was -1.18; in that of `O=C(COC(=O)/C=C/c1cccs1)Nc1ccc2ccccc2c1`, -0.133; in that of `CC(C)CN(CC(C)C)CC(O)COc1ccc([N+](=O)[O-])cc1` (configuration not stated), 0.154. In the case of `CCCCc1ccc(NC(=O)N[C@H](C(=O)O)C(C)C)cc1` it was -0.045. `CC1CC1C(=O)NCCc1ccc(Cl)cc1` (configuration not stated) showed a z-score of 1.05. The same measure for `S=C(NCCc1ccccn1)Nc1ccc(Cl)cc1`: 0.143; for `O=C(Nc1ccccc1Cl)N1CCN(c2ccc3nncn3n2)CC1`: 0.0568; for `O=C(CCc1ccccc1)Nc1ccc(NC(=O)C2CC2)nc1`: -1.03. The same measure for `CCC(C)(C)n1nnnc1C(c1ccccn1)N1CCN(c2cccc(OC)c2)CC1` (configuration not stated): -0.987.

In the case of `Cc1cc(NC(=O)COc2cccc(C)c2C)no1`, the z-score is -0.147. The same measure for `CCOC(=O)Cn1c(=O)oc2cc(S(=O)(=O)N3CCCC(C(=O)OCC)C3)ccc21` (configuration not stated): 0.444; for `Clc1ccc(OCc2cc(-c3ccccc3)no2)cc1Cl`: -0.0469; for `CC(=O)c1cnc2cc(-c3ccc(Cl)cc3)nn2c1C`: -0.316.

With `CC(=O)C1=NOC(CNC(=O)c2c(-c3ccccc3Cl)noc2C)C1` (configuration not stated), the z-score turned out to be 0.27. With `COC(=O)c1ccc(-c2ccco2)n1Cc1cccc(C)c1`, the z-score is -0.285. The same measure for `CCCn1nc(Oc2nc(SC)nc(N(C)C)n2)ccc1=O`: 0.225.

The record behind these values is PubChem BioAssay AID488969 (Vanderbilt High Throughput Screening Facility, 2010).
